Switch fluorescence ratio data for 79 sequences are collected here from the supplement of paper PMC10126150.

Values marked as one replicate rest on one cluster of the flow cell; about a third of the high ones do not repeat.
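Note: ATP exposure 15 min at 22 °C before imaging.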

The data set has as its system ATP. Kind of data set: switch fluorescence ratio, 500 uM ATP over buffer (Cy3 cluster intensity, sum of 5 cycles each) (fold (ratio)); higher = stronger signal-on switching upon ATP binding; sequences stand for … in TCGTCGGCAGCGTCAGATGTGTATAAGAGACAGTTTTTTTTTTTTTTTTTTTTTTTTT…TC. The settings on record: aptamer strand: ATP DNA aptamer (quencher-CACCTGGGGGAGTATTGCGGAGGAAGG + anchor), 100 nM annealed; ATP concentration: 500 uM; one replicate. In a few lines: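 Values give the fluorescence ratio for each switch-domain sequence, averaged from per-cluster ratios of summed target-cycle to summed buffer-cycle Cy3 intensity. The Cy3-labelled switching-strand clusters sat on a modified Illumina MiSeq flow-cell, were annealed to 100 nM quencher-labelled ATP aptamer, and were imaged in selection buffer, then after 15 min with 500 uM ATP at 22 °C. Five cycles ran with NaOH stripping and re-annealing between them, and clusters outside 100-1000 RFU were excluded.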
As for AGACGGGTAT, the switch fluorescence ratio was determined as 0.997.
As to GGTTAAAAGT, the switch fluorescence ratio was found to be 1.02.
With TACGGGGA, the switch fluorescence ratio stood at 0.963.
Consider TTGGATAATC, for which the switch fluorescence ratio was determined as 1.
Consider GCCATCAAAG, for which the switch fluorescence ratio was found to be 0.972.
For CCGGTGAATA, the switch fluorescence ratio stood at 1.3.
With GGTGAAATTT, the switch fluorescence ratio came to 0.997.
Take CTGTGGAAAT: the switch fluorescence ratio was found to be 1.02.
Take GCACTATTAA: the switch fluorescence ratio was 1.
With CACACATTAC, the switch fluorescence ratio is 1.69.
In the case of ACAGGAAAT, the switch fluorescence ratio was 0.987.
In the case of CGCGACAGAG, the switch fluorescence ratio worked out at 1.01.
Turning to GTATGGAGT, the switch fluorescence ratio was 0.95.
The figure for TTTGTCTGCC is 1.04.
The figure for TCCTTATAGA is 1.02; for TACGGTACCA it is 1.4; for TTGTGCCGTT it is 0.919.
With CCTAACGACA, the switch fluorescence ratio is 1.41.
With GAAACGGCTG, the switch fluorescence ratio is 1.03.
Regarding CGCCAAGGCC, the switch fluorescence ratio was found to be 1.02.
For the sequence GTGCCCCGCT, the switch fluorescence ratio was 0.998.
CCCTTCCTTG: the switch fluorescence ratio was found to be 1.73.
For AGTTATGCCA, the switch fluorescence ratio is 0.968.
Regarding GCTGTCGGCA, the switch fluorescence ratio is 1.
On to TCATCATGTG, for which the switch fluorescence ratio worked out at 1.03.
As to CCCTGGGCGT, the switch fluorescence ratio is 1.15.
For the sequence GGTTAGGGAA, the switch fluorescence ratio worked out at 0.968.
Consider GAATACCATG, for which the switch fluorescence ratio was found to be 0.989.
Regarding AGCCAATGAA, the switch fluorescence ratio was 1.03.
Turning to CTTATGTAAG, the switch fluorescence ratio is 1.
The figure for TTCACGTCTC is 1.03; for GCGCGATTGT it is 1.04; for ATCCACACGG it is 1.2.
The figure for CGGGGGTAAC is 1.04.
Consider GTTTAATAAG, for which the switch fluorescence ratio was 0.922.
Consider ATGACACGCA, for which the switch fluorescence ratio was found to be 1.16.
The figure for CCAATGGATT is 1.03; for TGGAGCTAGG it is 1.01; for TCAGATAGGT it is 0.995.
CCCGGACGTA: the switch fluorescence ratio amounted to 1.04.
As for CGGTCCTCTG, the switch fluorescence ratio is 1.14.
On to ATCATCGGCC, for which the switch fluorescence ratio turned out to be 1.04.
The figure for CATTCTGTTA is 0.988.
Consider TGGATTGGTG, for which the switch fluorescence ratio was 1.
The figure for TACTCAGGT is 1.09; for ATGACTTGAT it is 0.989.
In the case of GCGATCAGTC, the switch fluorescence ratio came out at 1.
Regarding ATGTAAAGTT, the switch fluorescence ratio amounted to 1.04.
The figure for TGTTCAAACT is 0.995.
The figure for ACTACGATTG is 1.04.
The figure for AATCCGAAAG is 1.23; for CTCTTTTATA it is 0.98; for CAGTAAATAG it is 3.32.
In the case of ATCATAGTTC, the switch fluorescence ratio is 1.01.
Take CGTTCGGTGC: the switch fluorescence ratio amounted to 1.06.
The figure for GTAGTATACA is 0.992; for CATCGTCTGC it is 1.02; for AGAATTGCTT it is 1.01.
Turning to AGGATGCGGC, the switch fluorescence ratio amounted to 1.03.
As for AATCGAATCT, the switch fluorescence ratio turned out to be 1.06.
The figure for TATAAATCGT is 1.04.
With GTTGGACTGT, the switch fluorescence ratio was 1.02.
On to ACGTGGTACC, for which the switch fluorescence ratio turned out to be 1.04.
On to GAGATACTA, for which the switch fluorescence ratio was 1.01.
For CGCGAATATG, the switch fluorescence ratio was 0.994.
For ACACGTTT, the switch fluorescence ratio came out at 1.02.
Take TTTGATGCCT: the switch fluorescence ratio was determined as 1.03.
In the case of CCTTGACCAG, the switch fluorescence ratio was 1.01.
The figure for GGAAAAGTAC is 1.45.
Regarding GAGGCGCACG, the switch fluorescence ratio came out at 1.
Consider GTCCCGGCGC, for which the switch fluorescence ratio is 1.08.
For GGGATGACGT, the switch fluorescence ratio came out at 0.943.
The figure for GGGTAGCTGT is 1.02.
In the case of CTATGAGCGG, the switch fluorescence ratio was 1.02.
The figure for ATGCAGAAGC is 1.03; for GAGCAGTTT it is 0.935.
As for CTGGGACAGG, the switch fluorescence ratio was found to be 0.957.
Take GTGGGTATCG: the switch fluorescence ratio was determined as 0.985.
The figure for GACAGTTATG is 0.955.
